Laboratory results as given in paper PMC7063047.

Target: WT1 co-immunoprecipitated with FLAG-USP9X from HEK 293T cells [human (endogenous in HEK 293T)]
Assay: co-immunoprecipitation (anti-FLAG IP, western blot quantification)
Settings: n = 4 biologically independent experiments, nocodazole 15 h for mitotic arrest as described in c, parent: 1, read off a plot

“FLAG-tagged USP9X^WT mutant S2563A [not stated] / WT1 co-immunoprecipitated with FLAG-USP9X from HEK 293T cells [human (endogenous in HEK 293T)] chain 1 S2563A” was tested, and the ratio to parent was 0.56.
